{"source": "the RNAGym collection of RNA variant scans (doi:10.1073/pnas.2313332121)", "parents": {"B1": {"name": "TPR 5TU (parent)", "chain": "GGAUCUUCUCGAUCUAACAAAAAAGACAAAUCUGCCACAAAGCUUGAGAGCAUCUUCGGAUGCAGAGGCGGCAGCCUUCGGUGGCGCGAUAGCGCCAACGUUCUCAACUAUGACACGCAAAACGCGUGCUCCGUUGAAUGGAGUUUAUCAUG"}}, "note": "Variants at the floor of the assay are shown more often than the library holds them."}
{"variants_of": "B1", "assay": "polymerase ribozyme fitness, log enrichment relative to wild type (log ratio); higher = more active; in vitro selection for triplet polymerase activity", "outline": "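For each subunit of a heterodimeric triplet polymerase ribozyme, a mutant library was built by PCR and transcribed, then taken through a single in vitro selection round in triplicate. Selection involved annealing to a biotinylated primer, the partner subunit and triplets, incubation frozen at −7 °C, gel excision of extended constructs, capture on streptavidin beads and RT-PCR. Genotypes were retained after Illumina sequencing of inputs and outputs only with ≥10 input reads and ≥1 read in each output. Fitness is defined as the logarithm of a genotype's enrichment relative to wild-type enrichment, using inverse-variance-weighted averages across replicates, with the logarithm taken to base 2.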"}
{"variant": "A40U C95U C129A U134C", "polymerase ribozyme fitness (log ratio)": -3.65}
{"variant": "A40U C95U G143U", "polymerase ribozyme fitness (log ratio)": "≤ -4.2"}
{"variant": "A40U C99U G117C", "polymerase ribozyme fitness (log ratio)": -0.515}
{"variant": "A40U C114U G141C G152U", "polymerase ribozyme fitness (log ratio)": -3.44}
{"variant": "A40U C125G G128A", "polymerase ribozyme fitness (log ratio)": "≤ -4.2"}
{"variant": "A40U G42C U53C G84U A89C", "polymerase ribozyme fitness (log ratio)": "≤ -4.2"}
{"variant": "A40U G42C U56A C85A", "polymerase ribozyme fitness (log ratio)": "≤ -4.2"}
{"variant": "A40U G48C A52U G68C U90G C93A A120G C132U U146A", "polymerase ribozyme fitness (log ratio)": "≤ -4.2"}
{"variant": "A40U G48C C69G C85U", "polymerase ribozyme fitness (log ratio)": -1.48}
{"variant": "A40U G50A G71C G74C U78C U104A A150U", "polymerase ribozyme fitness (log ratio)": "≤ -4.2"}
{"variant": "A40U G50C A52G C85A U90C A97U", "polymerase ribozyme fitness (log ratio)": "≤ -4.2"}
{"variant": "A40U G50C C57U U82A", "polymerase ribozyme fitness (log ratio)": -2.79}
{"variant": "A40U G50C G71U C75A", "polymerase ribozyme fitness (log ratio)": "≤ -4.2"}
{"variant": "A40U G58U C95A A107C U146C", "polymerase ribozyme fitness (log ratio)": "≤ -4.2"}
{"variant": "A40U G59C C132U U145G", "polymerase ribozyme fitness (log ratio)": -1.94}
{"variant": "A40U G59U C75A C85U U109A", "polymerase ribozyme fitness (log ratio)": "≤ -4.2"}
{"variant": "A40U G59U C75G U82G C99U A137U G141C", "polymerase ribozyme fitness (log ratio)": "≤ -4.2"}
{"variant": "A40U G62U C72G G80C U82C A138U", "polymerase ribozyme fitness (log ratio)": "≤ -4.2"}
{"variant": "A40U G65A C87G A91U C95U G133A U148G", "polymerase ribozyme fitness (log ratio)": "≤ -4.2"}
{"variant": "A40U G67C A91U U111A G117C A119U G141A", "polymerase ribozyme fitness (log ratio)": "≤ -4.2"}
{"variant": "A40U G67C C75A A138G G152A", "polymerase ribozyme fitness (log ratio)": "≤ -4.2"}
{"variant": "A40U G67C G86A A89U C96G C132G A137U", "polymerase ribozyme fitness (log ratio)": "≤ -4.2"}
{"variant": "A40U G68C G124U C129G U135C C149G", "polymerase ribozyme fitness (log ratio)": "≤ -4.2"}
{"variant": "A40U G70C C79G A106G U135C U145G A150C", "polymerase ribozyme fitness (log ratio)": "≤ -4.2"}
{"variant": "A40U G71A C93G A150C", "polymerase ribozyme fitness (log ratio)": "≤ -4.2"}
{"variant": "A40U G71U C85G", "polymerase ribozyme fitness (log ratio)": "≤ -4.2"}
{"variant": "A40U G74U C85U C93A A107U G124U U135G", "polymerase ribozyme fitness (log ratio)": "≤ -4.2"}
{"variant": "A40U G81C C87G", "polymerase ribozyme fitness (log ratio)": "≤ -4.2"}
{"variant": "A40U G83A C105U A107U A119U", "polymerase ribozyme fitness (log ratio)": "≤ -4.2"}
{"variant": "A40U G83C A91U", "polymerase ribozyme fitness (log ratio)": "≤ -4.2"}
{"variant": "A40U G84U C85G A89U G126U", "polymerase ribozyme fitness (log ratio)": "≤ -4.2"}
{"variant": "A40U G86A G141A", "polymerase ribozyme fitness (log ratio)": -1.06}
{"variant": "A40U G86C C114G A137U", "polymerase ribozyme fitness (log ratio)": "≤ -4.2"}
{"variant": "A40U G86U C108G U148G", "polymerase ribozyme fitness (log ratio)": "≤ -4.2"}
{"variant": "A40U G88A", "polymerase ribozyme fitness (log ratio)": -3.65}
{"variant": "A40U G88C U101G", "polymerase ribozyme fitness (log ratio)": "≤ -4.2"}
{"variant": "A40U G92A A119C A120C U148G", "polymerase ribozyme fitness (log ratio)": "≤ -4.2"}
{"variant": "A40U G92A A120C", "polymerase ribozyme fitness (log ratio)": -2.75}
{"variant": "A40U G92C A147C", "polymerase ribozyme fitness (log ratio)": -0.761}
{"variant": "A40U G92C U102C C103G A113G C132G U146C G152U", "polymerase ribozyme fitness (log ratio)": "≤ -4.2"}
{"variant": "A40U G94A G126A", "polymerase ribozyme fitness (log ratio)": -0.19}
{"variant": "A40U G94A U104C A110G C118U G140A", "polymerase ribozyme fitness (log ratio)": "≤ -4.2"}
{"variant": "A40U G94U C118U A121C C125A G143C", "polymerase ribozyme fitness (log ratio)": "≤ -4.2"}
{"variant": "A40U G94U G136C", "polymerase ribozyme fitness (log ratio)": -4.02}
{"variant": "A40U G140U", "polymerase ribozyme fitness (log ratio)": -3.81}
{"variant": "A40U G152U", "polymerase ribozyme fitness (log ratio)": -3.71}
{"variant": "A40U U45A G62U C79U G81C C132A U139G", "polymerase ribozyme fitness (log ratio)": "≤ -4.2"}
{"variant": "A40U U45C U55A A106G A120U C125U U144C", "polymerase ribozyme fitness (log ratio)": "≤ -4.2"}
{"variant": "A40U U53A G81U G84A C116A G140A G143A", "polymerase ribozyme fitness (log ratio)": "≤ -4.2"}
{"variant": "A40U U53A G88C A89C U127A", "polymerase ribozyme fitness (log ratio)": "≤ -4.2"}
{"variant": "A40U U55A C85A C116A", "polymerase ribozyme fitness (log ratio)": -0.563}
{"variant": "A40U U55G C96G", "polymerase ribozyme fitness (log ratio)": -0.541}
{"variant": "A40U U55G G92C A107G U134G", "polymerase ribozyme fitness (log ratio)": "≤ -4.2"}
{"variant": "A40U U56A", "polymerase ribozyme fitness (log ratio)": -0.0589}
{"variant": "A40U U56A C75G", "polymerase ribozyme fitness (log ratio)": -3.97}
{"variant": "A40U U56A C75G C96A C103A A115C", "polymerase ribozyme fitness (log ratio)": "≤ -4.2"}
{"variant": "A40U U56A C85G C114G", "polymerase ribozyme fitness (log ratio)": -3.79}
{"variant": "A40U U56G C57G A121C U135G A137C G152C", "polymerase ribozyme fitness (log ratio)": "≤ -4.2"}
{"variant": "A40U U61A C76U C103G G128C", "polymerase ribozyme fitness (log ratio)": "≤ -4.2"}
{"variant": "A40U U78A C93U G140A", "polymerase ribozyme fitness (log ratio)": "≤ -4.2"}
{"variant": "A40U U82A C95G", "polymerase ribozyme fitness (log ratio)": -1.43}
{"variant": "A40U U130A", "polymerase ribozyme fitness (log ratio)": -3.96}
{"variant": "A41C A47C C96U C103U A115G", "polymerase ribozyme fitness (log ratio)": -3.11}
{"variant": "A41C A47C G71U C96A G141A", "polymerase ribozyme fitness (log ratio)": "≤ -4.2"}
{"variant": "A41C A47C G88U A97U", "polymerase ribozyme fitness (log ratio)": -4.03}
{"variant": "A41C A47C U78A C125U", "polymerase ribozyme fitness (log ratio)": "≤ -4.2"}
{"variant": "A41C A47G A107G U109G C129A A137U U145G G152A", "polymerase ribozyme fitness (log ratio)": "≤ -4.2"}
{"variant": "A41C A47U G86U U90C C99G C118G A147C", "polymerase ribozyme fitness (log ratio)": "≤ -4.2"}
{"variant": "A41C A49C G81A A97C C103G G124U U134C", "polymerase ribozyme fitness (log ratio)": "≤ -4.2"}
{"variant": "A41C A49G U82A A91G", "polymerase ribozyme fitness (log ratio)": "≤ -4.2"}
{"variant": "A41C A49U A91U U139G", "polymerase ribozyme fitness (log ratio)": "≤ -4.2"}
{"variant": "A41C A49U U61A G70A U127A", "polymerase ribozyme fitness (log ratio)": "≤ -4.2"}
{"variant": "A41C A52C A89U A91C G92A A115C", "polymerase ribozyme fitness (log ratio)": "≤ -4.2"}
{"variant": "A41C A52C C63U G65U G86U G143C", "polymerase ribozyme fitness (log ratio)": "≤ -4.2"}
{"variant": "A41C A52C C69U C87A A119G G140U", "polymerase ribozyme fitness (log ratio)": "≤ -4.2"}
{"variant": "A41C A52C U53A C85U C93U U127G", "polymerase ribozyme fitness (log ratio)": "≤ -4.2"}
{"variant": "A41C A52C U55A U61A U82G C116U G140U", "polymerase ribozyme fitness (log ratio)": "≤ -4.2"}
{"variant": "A41C A52G G86U", "polymerase ribozyme fitness (log ratio)": -2.67}
{"variant": "A41C A52U A66C U102G U134A", "polymerase ribozyme fitness (log ratio)": "≤ -4.2"}
{"variant": "A41C A60G G92A A106U", "polymerase ribozyme fitness (log ratio)": -3.98}
{"variant": "A41C A66C A147G", "polymerase ribozyme fitness (log ratio)": "≤ -4.2"}
{"variant": "A41C A66G C79G G141A", "polymerase ribozyme fitness (log ratio)": "≤ -4.2"}
{"variant": "A41C A66G C108G", "polymerase ribozyme fitness (log ratio)": "≤ -4.2"}
